{
  "source": "PubChem BioAssay AID504332",
  "about": "(National Center for Advancing Translational Sciences (NCATS), 2011)",
  "note": "About 31,000 (8.9%) of roughly 350,000 compounds were called active. Inconclusive means that the source gave no clear call. Such entries were picked first, then a sample of the others. Calls come from the whole dose curve; as a rule, active = well fitted inhibition curve with a large enough effect; inconclusive = small, poorly fitted or top-dose-only effect; inactive = no such curve, though single readings can be large or run the other way. A potency beside an inconclusive call is a rough fit, not a confirmed value. % is set by controls: 0 for no effect and ±100 for the full control effect; potency is the fitted concentration of half-maximal effect; tags give direction and shape of the fitted curve.",
  "data": [
    {"target": "Histone-lysine N-methyltransferase EHMT2 (Homo sapiens) (UniProt Q96KQ7)", "sequence (Q96KQ7 whole entry, looked up)": "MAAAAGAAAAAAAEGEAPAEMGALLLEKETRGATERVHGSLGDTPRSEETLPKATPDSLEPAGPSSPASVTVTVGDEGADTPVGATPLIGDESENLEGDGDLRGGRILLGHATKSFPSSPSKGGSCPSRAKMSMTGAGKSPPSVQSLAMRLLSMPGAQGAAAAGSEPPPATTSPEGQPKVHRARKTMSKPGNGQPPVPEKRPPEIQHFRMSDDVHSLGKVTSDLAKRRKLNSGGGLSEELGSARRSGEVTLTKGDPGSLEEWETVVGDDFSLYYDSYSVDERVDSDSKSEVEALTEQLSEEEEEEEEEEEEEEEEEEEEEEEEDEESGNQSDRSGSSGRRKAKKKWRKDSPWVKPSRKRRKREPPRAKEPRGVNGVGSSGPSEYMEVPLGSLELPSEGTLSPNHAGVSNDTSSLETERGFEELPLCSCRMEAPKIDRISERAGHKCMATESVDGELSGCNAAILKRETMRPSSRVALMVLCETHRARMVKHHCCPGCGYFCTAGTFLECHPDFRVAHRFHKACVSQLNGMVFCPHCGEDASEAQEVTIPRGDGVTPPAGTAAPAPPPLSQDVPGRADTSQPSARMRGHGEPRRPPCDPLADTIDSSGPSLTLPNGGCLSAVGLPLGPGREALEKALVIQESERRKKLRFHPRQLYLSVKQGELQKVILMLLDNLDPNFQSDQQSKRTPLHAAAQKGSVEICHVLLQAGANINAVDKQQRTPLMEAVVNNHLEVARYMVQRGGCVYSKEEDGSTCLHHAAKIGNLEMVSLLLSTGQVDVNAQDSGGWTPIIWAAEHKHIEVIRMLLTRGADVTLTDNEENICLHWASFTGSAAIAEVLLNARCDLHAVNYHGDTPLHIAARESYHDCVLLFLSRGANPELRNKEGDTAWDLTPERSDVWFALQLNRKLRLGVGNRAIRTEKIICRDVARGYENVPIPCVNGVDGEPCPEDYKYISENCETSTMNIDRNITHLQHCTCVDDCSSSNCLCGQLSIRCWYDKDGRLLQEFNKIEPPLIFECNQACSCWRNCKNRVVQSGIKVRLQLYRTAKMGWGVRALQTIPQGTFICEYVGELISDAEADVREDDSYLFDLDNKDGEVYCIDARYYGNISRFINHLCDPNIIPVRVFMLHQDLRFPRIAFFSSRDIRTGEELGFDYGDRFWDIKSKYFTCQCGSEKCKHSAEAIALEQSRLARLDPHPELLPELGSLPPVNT", "experiment": "qHTS Assay for Inhibitors of Histone Lysine Methyltransferase G9a; note: nearly all actives have a fitted effect of over 75% in size", "conditions": "G9a H3K9 monomethylation, AlphaScreen, 2 h; activity, negative = inhibition: at 59 µM (top of the series) unless noted", "procedure,_shortened": "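Methyltransferase reactions run at room temperature for 2 h (20 nM enzyme, 500 nM biotin-H3K9 peptide, 20 uM SAM) after a 15 min compound preincubation; product detected by AlphaScreen beads and anti-H3K9me1 antibody.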", "values": [
      {"smiles": "C(=N\\Nc1nc(N2CCCCC2)nc(N2CCCCC2)n1)/c1c[nH]c2ccccc12", "Potency": "inconclusive: 39.8 µM [inhibitor, partial curve]"},
      {"smiles": "O=C(CSc1nccc(=O)[nH]1)N1N=C2/C(=C/c3ccco3)CCCC2C1c1ccco1", "note": "(stereo not given)", "Potency": "inconclusive: 39.8 µM [inhibitor, partial curve, poor fit]"},
      {"smiles": "COCCNc1oc(Cc2cccc3ccccc23)nc1C#N", "Potency": "active: 79.4 µM"},
      {"smiles": "O=C(Cc1cccs1)NNC(=S)NC(=O)c1ccc(F)c(F)c1", "Potency": "inconclusive: 2 µM [inhibitor, full curve, poor fit]"},
      {"smiles": "CCOC(=O)C1=C(C)N(C)C(=O)NC1c1cc2c(cc1[N+](=O)[O-])OCO2", "note": "(stereo not given)", "Potency": "inconclusive: 25.1 µM [inhibitor, single point]"},
      {"smiles": "COc1ccccc1N(CCC#N)C(=O)COC(=O)CCC(=O)c1ccc(F)cc1", "Potency": "inconclusive: 0.794 µM [inhibitor, single point]"},
      {"smiles": "CCOC(=O)c1cccc(NS(=O)(=O)c2ccc3[nH]c4c(c3c2)CCCC4)c1", "Potency": "active: 14.1 µM"},
      {"smiles": "Cn1cc(CN2CCC(C(=O)Nc3cccc(-c4cccc(F)c4)c3)CC2)cn1", "Potency": "inconclusive: 25.1 µM [inhibitor, partial curve]"},
      {"smiles": "Cc1ccc(OC(C)C(=O)N2CCN(CCc3ccncc3)CC2)cc1C", "note": "(stereo not given)", "activity, negative = inhibition": "inactive: -27%"},
      {"smiles": "CC(C)CC(=O)N=C1SC2CS(=O)(=O)CC2N1Cc1ccccc1Cl", "note": "(stereo not given)", "Potency": "inconclusive: 28.2 µM [inhibitor, partial curve, poor fit]"},
      {"smiles": "CC(Sc1nc2c(c(=O)[nH]1)CCCC2)C(=O)Nc1cc(C(F)(F)F)ccc1Cl", "note": "(stereo not given)", "activity, negative = inhibition": "inactive: -35.8%"},
      {"smiles": "Cc1nc2ncccn2c1-c1csc(Nc2ccccc2)n1", "Potency": "active: 25.1 µM"},
      {"smiles": "CC(=O)Oc1ccc2oc3c(c2c1)C(=O)CCC3", "Potency": "inconclusive: 79.4 µM [inhibitor, partial curve, poor fit]"},
      {"smiles": "O=C(NCc1ccccc1)NC1(C(=O)N2CCN3CCCC3C2)CCCCC1", "note": "(stereo not given)", "Potency": "inconclusive: 39.8 µM [inhibitor, partial curve, poor fit]"},
      {"smiles": "COC(=O)[C@@H]1C[C@@]2(O)[C@H](O)[C@H](O)[C@H](O)C[C@H]2N1Cc1cccc2ccccc12", "Potency": "inconclusive: 10 µM [inhibitor, single point]"},
      {"smiles": "Cc1nc2cc(C(F)(F)F)ccc2n1CCNc1nc(-c2ccc(F)cc2)cs1", "Potency": "active: 28.2 µM"},
      {"smiles": "CCOC(=O)N1CCN(Cc2nc(N)nc(Nc3ccccc3C)n2)CC1", "Potency": "inconclusive: 11.2 µM [inhibitor, partial curve, poor fit]"},
      {"smiles": "CCCCc1ccc(-n2nc3cc(Cl)c(NC(=O)c4ccc(OC)cc4)cc3n2)cc1", "activity, negative = inhibition": "inactive: -3.45%"},
      {"smiles": "Cc1cc(C)c(C#N)c(SCc2ccccc2[N+](=O)[O-])n1", "Potency": "active: 10 µM"},
      {"smiles": "Cc1ccc(C=Nc2ccccc2C(N)=O)cc1", "Potency": "inconclusive: 89.1 µM [inhibitor, partial curve, poor fit]"},
      {"smiles": "CS(=O)(=O)N1CCN(c2ccc([N+](=O)[O-])c(NCCN3CCOCC3)c2)CC1", "activity, negative = inhibition": "inactive: 2.99%"},
      {"smiles": "COc1ccccc1C(=O)NCC(C)(C)CN=C1NS(=O)(=O)c2ccccc21", "activity, negative = inhibition": "inactive: 1.16% [at 102 µM]"},
      {"smiles": "COc1cc(OC)c(C2C(C#N)=C(N)OC3=C2C(=O)CC(C)(C)C3)cc1OC", "note": "(stereo not given)", "Potency": "inconclusive: 2 µM [inhibitor, partial curve, poor fit]"},
      {"smiles": "C=CCn1c(C)cc(C2=NNC(=NC(C)(C)C)SC2)c1C", "Potency": "inconclusive: 31.6 µM [inhibitor, single point]"},
      {"smiles": "COC(=O)c1sc2ccccc2c1C(=O)OC", "Potency": "inconclusive: 39.8 µM [inhibitor, partial curve]"},
      {"smiles": "COc1ccc(NC(=O)CNS(=O)(=O)c2cccc3nonc23)c(OC)c1", "Potency": "inconclusive: 4.47 µM [inhibitor, single point]"},
      {"smiles": "CCc1ccc(OCC2c3cc(OC)c(OC)cc3CCN2C(=S)NCCOC)cc1", "note": "(stereo not given)", "Potency": "active: 15.8 µM"},
      {"smiles": "CCOC(=O)C1=C(O)/C(=C\\c2ccc(CNC(=O)C(=O)Nc3ccc(C)c(C)c3)o2)N=C1C", "Potency": "active: 44.7 µM"},
      {"smiles": "O=C(C[n+]1ccc(/C=C/c2ccccc2)cc1)c1ccc2c(c1)OCCO2", "activity, negative = inhibition": "inconclusive: -57% [inhibitor]"},
      {"smiles": "OC1(CNCc2cn[nH]c2-c2cc3ccccc3o2)CCCCC1", "activity, negative = inhibition": "inactive: 2.12% [at 102 µM]"},
      {"smiles": "Cc1ccccc1CN1CCC(n2nccc2NC(=O)c2ccc3c(c2)OCO3)CC1", "activity, negative = inhibition": "inactive: -10% [at 102 µM]"},
      {"smiles": "Cc1ccc(NC(=S)NNC(=O)Cn2nc(C(F)F)cc2C(F)F)cc1", "Potency": "inconclusive: 31.6 µM [inhibitor, single point]"},
      {"smiles": "CCSCCOC(=O)C1=C(C)NC2=C(C(=O)CCC2)C1c1coc2ccccc2c1=O", "note": "(stereo not given)", "Potency": "inconclusive: 50.1 µM [inhibitor, partial curve, poor fit]"},
      {"smiles": "COc1cc2c(cc1OC)C1(Nc3c-2c(-c2ccccc2)nn3-c2ccccc2)C(=O)Nc2ccccc21", "note": "(stereo not given)", "Potency": "active: 79.4 µM"},
      {"smiles": "Cc1ccc(NC(=O)c2ccc(Cl)cc2Cl)c(C(=O)c2ccccc2)c1", "activity, negative = inhibition": "inactive: 0.233%"},
      {"smiles": "Clc1ccc(-n2nnnc2SCc2cn3ccccc3n2)cc1", "Potency": "inconclusive: 7.08 µM [inhibitor, full curve, poor fit]"},
      {"smiles": "O=C(CSc1ccc(-c2ccco2)nn1)NCc1ccc(F)cc1", "Potency": "active: 44.7 µM"},
      {"smiles": "CSc1ccc(S(=O)(=O)NCC(=O)OCC(=O)NCc2cccs2)cc1[N+](=O)[O-]", "Potency": "inconclusive: 39.8 µM [inhibitor, partial curve]"},
      {"smiles": "CCOC1(NC(=O)c2ccccc2)C(C)=CC(=O)C=C1C", "Potency": "inconclusive: 25.1 µM [inhibitor, single point]"},
      {"smiles": "CCCCc1c(C)nc2c(-c3ccc(Cl)cc3)c(C)[nH]n2c1=O", "activity, negative = inhibition": "inactive: 9.33%"},
      {"smiles": "CCOC(=O)c1sc(NN=C(C(=O)OC)C(=O)OC)c(C(=O)OCC)c1C", "Potency": "inconclusive: 11.2 µM [inhibitor, partial curve, poor fit]"},
      {"smiles": "Cc1cc(=O)oc2cc(NC(=O)C(C)Oc3ccccc3)ccc12", "note": "(stereo not given)", "Potency": "inconclusive: 63.1 µM [inhibitor, partial curve, poor fit]"},
      {"smiles": "Cc1ccc2cc(/C=N/NC(=O)c3ccc(F)cc3)c(Cl)nc2c1", "activity, negative = inhibition": "inactive: 66.9%"},
      {"smiles": "Brc1cccc(CSc2nnc(-c3ccncc3)o2)c1", "Potency": "active: 44.7 µM"},
      {"smiles": "CC(=O)N1CCN(c2ccc([N+](=O)[O-])c(NCc3cccnc3)c2)CC1", "Potency": "inconclusive: 89.1 µM [inhibitor, partial curve, poor fit]"}
    ]}
  ]
}
